About 21,000 targets were measured; listed, in parts, are those with the largest changes and a random draw of the rest.
Compound: CC1Cc2ccccc2N1C(=O)C1CCCN(C1)C(=O)CCl (mixture of isomers) [TRIM25 ligand 11 (diastereomer mixture)]
Assay: probe-labelled cysteine peptide fold change vs DMSO (competition) (log2 fold change); higher = less target engagement (more negative = stronger competition)
Details: THP-1, incubation time: 4 h
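Also: competitive chemoproteomic profiling in live THP-1 cells with an iodoacetamide desthiobiotin (IA-DTB) probe, comparing probe-labelled peptide intensities in compound-treated cells against DMSO-treated controls.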

Chain of UniProt Q92538 (Q92538 whole entry, looked up): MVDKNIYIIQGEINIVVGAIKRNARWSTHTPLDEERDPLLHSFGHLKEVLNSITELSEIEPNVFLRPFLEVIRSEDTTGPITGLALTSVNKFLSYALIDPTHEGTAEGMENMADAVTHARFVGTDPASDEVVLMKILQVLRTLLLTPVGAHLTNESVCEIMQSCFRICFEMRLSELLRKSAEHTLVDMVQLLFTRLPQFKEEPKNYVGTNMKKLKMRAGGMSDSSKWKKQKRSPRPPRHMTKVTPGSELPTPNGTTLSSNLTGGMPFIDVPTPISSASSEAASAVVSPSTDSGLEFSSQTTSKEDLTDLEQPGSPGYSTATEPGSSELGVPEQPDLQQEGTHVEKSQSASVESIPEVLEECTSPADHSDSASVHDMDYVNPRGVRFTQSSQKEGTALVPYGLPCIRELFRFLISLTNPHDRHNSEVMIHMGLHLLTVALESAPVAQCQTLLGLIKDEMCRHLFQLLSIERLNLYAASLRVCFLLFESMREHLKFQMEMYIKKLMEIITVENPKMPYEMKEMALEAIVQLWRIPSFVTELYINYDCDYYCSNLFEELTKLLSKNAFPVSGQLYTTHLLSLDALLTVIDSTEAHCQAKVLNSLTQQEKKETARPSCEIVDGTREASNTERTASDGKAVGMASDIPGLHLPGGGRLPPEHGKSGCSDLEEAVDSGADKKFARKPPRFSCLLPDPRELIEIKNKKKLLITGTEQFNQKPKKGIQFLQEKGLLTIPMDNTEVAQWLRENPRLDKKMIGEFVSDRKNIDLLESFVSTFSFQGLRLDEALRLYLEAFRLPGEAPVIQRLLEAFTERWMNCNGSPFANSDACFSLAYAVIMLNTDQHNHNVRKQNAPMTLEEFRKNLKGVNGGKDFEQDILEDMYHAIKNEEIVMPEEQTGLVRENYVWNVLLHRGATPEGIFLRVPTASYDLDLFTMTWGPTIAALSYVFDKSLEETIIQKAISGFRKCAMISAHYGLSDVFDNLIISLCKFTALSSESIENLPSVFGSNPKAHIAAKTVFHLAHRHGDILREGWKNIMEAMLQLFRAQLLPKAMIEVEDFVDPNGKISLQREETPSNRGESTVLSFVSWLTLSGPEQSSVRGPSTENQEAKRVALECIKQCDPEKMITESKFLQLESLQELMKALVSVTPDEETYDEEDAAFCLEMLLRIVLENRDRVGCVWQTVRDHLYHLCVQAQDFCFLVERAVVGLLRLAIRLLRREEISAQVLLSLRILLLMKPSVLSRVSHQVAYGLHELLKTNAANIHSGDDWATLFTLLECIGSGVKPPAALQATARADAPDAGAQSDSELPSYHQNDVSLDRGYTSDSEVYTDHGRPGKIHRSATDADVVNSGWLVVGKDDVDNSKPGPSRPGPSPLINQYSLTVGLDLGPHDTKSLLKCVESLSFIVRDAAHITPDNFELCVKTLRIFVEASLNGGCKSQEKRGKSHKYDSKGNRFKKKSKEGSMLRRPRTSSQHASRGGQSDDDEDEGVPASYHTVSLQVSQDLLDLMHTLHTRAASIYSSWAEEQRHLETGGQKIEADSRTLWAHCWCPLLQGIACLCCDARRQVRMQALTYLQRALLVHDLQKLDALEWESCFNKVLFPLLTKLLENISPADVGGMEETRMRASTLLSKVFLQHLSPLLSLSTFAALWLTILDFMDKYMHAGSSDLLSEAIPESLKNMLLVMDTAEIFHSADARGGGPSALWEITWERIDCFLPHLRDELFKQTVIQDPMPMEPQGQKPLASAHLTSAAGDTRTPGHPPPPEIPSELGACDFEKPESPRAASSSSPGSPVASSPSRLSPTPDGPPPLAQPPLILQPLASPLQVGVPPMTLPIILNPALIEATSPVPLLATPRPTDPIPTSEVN
Chain of UniProt Q7Z4H3 (Q7Z4H3 whole entry, looked up): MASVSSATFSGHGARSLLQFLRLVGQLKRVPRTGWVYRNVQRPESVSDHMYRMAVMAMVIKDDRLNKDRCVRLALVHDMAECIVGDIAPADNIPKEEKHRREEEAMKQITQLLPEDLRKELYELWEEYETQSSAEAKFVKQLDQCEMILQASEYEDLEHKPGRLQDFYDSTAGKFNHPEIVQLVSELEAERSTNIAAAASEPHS
Chain of UniProt P78417 (P78417 whole entry): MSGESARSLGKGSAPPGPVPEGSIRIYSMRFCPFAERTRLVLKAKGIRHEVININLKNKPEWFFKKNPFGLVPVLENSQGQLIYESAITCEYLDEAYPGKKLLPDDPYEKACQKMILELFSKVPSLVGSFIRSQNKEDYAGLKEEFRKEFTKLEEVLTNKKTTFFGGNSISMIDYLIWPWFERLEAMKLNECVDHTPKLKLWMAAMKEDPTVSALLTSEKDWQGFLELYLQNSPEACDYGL
Chain of UniProt Q9UJJ9 (Q9UJJ9 whole entry, looked up): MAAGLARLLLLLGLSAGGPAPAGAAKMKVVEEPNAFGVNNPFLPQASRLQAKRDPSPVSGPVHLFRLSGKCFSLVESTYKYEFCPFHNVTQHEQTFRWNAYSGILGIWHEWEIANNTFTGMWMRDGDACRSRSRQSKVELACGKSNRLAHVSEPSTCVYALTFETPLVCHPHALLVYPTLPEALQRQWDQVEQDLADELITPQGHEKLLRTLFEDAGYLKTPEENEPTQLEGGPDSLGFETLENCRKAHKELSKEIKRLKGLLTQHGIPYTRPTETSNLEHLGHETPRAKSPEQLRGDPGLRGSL
Chain of UniProt Q92598 (Q92598 whole entry, looked up): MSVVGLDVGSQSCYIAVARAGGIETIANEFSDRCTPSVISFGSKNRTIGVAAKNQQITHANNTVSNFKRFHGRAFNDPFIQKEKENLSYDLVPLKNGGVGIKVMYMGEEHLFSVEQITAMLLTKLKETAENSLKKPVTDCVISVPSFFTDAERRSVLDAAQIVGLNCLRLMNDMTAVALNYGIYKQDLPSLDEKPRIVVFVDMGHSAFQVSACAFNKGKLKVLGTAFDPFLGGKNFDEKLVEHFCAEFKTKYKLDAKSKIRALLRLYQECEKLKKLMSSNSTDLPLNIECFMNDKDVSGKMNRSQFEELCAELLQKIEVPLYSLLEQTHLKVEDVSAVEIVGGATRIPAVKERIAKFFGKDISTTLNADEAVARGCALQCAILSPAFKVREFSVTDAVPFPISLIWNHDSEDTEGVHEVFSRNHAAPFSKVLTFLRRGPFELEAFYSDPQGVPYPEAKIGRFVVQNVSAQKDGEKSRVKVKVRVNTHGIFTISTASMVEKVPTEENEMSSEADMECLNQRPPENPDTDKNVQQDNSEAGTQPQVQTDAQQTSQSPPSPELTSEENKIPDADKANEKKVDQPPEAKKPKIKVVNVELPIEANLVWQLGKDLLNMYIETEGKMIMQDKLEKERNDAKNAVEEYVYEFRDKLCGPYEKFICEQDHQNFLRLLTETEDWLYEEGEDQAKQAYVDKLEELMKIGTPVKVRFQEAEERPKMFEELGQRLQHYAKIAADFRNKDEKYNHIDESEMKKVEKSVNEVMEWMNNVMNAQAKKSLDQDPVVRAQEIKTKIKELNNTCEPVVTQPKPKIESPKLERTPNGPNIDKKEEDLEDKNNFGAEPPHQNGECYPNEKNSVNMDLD
Chain of UniProt Q96RP9 (Q96RP9 whole entry, looked up): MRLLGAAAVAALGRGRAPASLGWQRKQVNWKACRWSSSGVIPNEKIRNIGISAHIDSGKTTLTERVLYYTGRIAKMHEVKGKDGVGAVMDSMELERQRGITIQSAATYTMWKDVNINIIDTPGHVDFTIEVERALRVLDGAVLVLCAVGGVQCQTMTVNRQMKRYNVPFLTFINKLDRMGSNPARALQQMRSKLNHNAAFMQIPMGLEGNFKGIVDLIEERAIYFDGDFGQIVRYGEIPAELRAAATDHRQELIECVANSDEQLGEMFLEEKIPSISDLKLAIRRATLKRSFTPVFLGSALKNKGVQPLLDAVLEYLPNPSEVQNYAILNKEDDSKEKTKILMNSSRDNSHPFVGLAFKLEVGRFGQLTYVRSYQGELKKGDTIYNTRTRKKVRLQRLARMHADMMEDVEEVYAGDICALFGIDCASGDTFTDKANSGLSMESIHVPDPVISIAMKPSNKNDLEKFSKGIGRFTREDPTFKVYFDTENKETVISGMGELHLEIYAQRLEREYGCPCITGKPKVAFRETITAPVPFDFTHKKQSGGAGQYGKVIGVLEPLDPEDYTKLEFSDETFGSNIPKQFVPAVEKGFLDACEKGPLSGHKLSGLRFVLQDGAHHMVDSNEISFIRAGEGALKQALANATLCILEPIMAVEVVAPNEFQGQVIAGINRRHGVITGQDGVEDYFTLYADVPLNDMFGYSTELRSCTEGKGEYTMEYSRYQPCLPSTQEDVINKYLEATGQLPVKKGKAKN
Chain of UniProt Q4V328 (Q4V328 whole entry, looked up): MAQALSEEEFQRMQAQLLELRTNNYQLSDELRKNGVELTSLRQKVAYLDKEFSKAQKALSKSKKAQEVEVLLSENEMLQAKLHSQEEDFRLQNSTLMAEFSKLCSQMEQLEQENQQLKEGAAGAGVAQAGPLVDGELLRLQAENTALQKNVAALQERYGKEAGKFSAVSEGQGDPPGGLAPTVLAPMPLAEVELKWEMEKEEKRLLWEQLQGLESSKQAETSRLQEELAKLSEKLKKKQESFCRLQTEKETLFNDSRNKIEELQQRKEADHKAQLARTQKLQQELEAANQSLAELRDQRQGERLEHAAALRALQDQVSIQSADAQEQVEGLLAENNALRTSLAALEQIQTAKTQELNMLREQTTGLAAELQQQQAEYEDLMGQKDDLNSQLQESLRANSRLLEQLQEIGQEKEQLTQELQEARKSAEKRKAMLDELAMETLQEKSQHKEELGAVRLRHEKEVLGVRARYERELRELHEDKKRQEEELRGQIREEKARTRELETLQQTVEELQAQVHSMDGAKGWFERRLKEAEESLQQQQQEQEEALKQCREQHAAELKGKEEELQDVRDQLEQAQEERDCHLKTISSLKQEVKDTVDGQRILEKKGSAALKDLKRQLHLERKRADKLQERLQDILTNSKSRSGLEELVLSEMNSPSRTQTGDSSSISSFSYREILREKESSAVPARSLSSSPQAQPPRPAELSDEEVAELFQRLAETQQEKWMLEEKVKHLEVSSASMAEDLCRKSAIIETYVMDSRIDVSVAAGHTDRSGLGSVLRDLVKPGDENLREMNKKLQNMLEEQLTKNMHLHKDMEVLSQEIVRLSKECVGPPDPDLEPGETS

Target	probe-labelled cysteine peptide fold change (10 µM)	probe-labelled cysteine peptide fold change (50 µM)
GMPR2_Q9P2T1_224_GHIISDGGCSCPGDVAK (UniProt Q9P2T1)	0.0994	0.0252
HEATR3_Q7Z4Q2_171+173_NSIENIANETVNVLWNICECSSR (UniProt Q7Z4Q2)	-0.112	0.755
GNA15_P30679_345_LFSHYTCATDTQNIR (UniProt P30679)	-0.0387	0.226
GGA2_Q9UJY4_93_EALYALTVLEMCMNHCGEK (UniProt Q9UJY4)	0.045	0.109
GSS_P48637_409_IEPEPFENCLLR (UniProt P48637)	0.0626	0.0486
GBF1_Q92538_1588_LDALEWESCFNK (UniProt Q92538)	-0.0828	-0.0679
GRIPAP1_Q4V328-2_502_EAEGKEEELQDVRDQLEQAQEERDCHLK (UniProt Q4V328)	-0.34	-0.278
HGH1_Q9BTY7_368_GMENLLEVQVPEDVEQQLQQLDCR (UniProt Q9BTY7)	-0.0716	-0.143
GSTZ1_O43708_205_LLVLEAFQVSHPCR (UniProt O43708)	0.0737	0.0943
GSTO1_P78417_192_LNECVDHTPK (UniProt P78417)	0.0456	0.0287
GSR_P00390_278_SFDSMISTNCTEELENAGVEVLK (UniProt P00390)	-0.0284	-0.106
GTF3C4_Q9UKN8_93_SIAVLELICDVHNPGQDLVIHR (UniProt Q9UKN8)	0.198	0.205
HSF1_Q00613_373+378_CLSVACLDK (UniProt Q00613)	-0.0719	-0.31
HNRNPU_Q00839_594_KMCLFAGFQR (UniProt Q00839)	-0.59	-0.549
HDDC2_Q7Z4H3_145_QLDQCEMILQASEYEDLEHKPGR (UniProt Q7Z4H3)	-0.122	-0.224
GATM_P50440_324_DPNPMHIDATFNIIGPGIVLSNPDRPCHQIDLFK (UniProt P50440)	0.214	0.447
GART_P22102_62_ISNTAISISDHTALAQFCK (UniProt P22102)	0.305	-0.0487
GCC2_Q8IWJ2_257_ELMCQIEASAK (UniProt Q8IWJ2)	-0.27	-0.449

Target	probe-labelled cysteine peptide fold change (10 µM)	probe-labelled cysteine peptide fold change (50 µM)
GLRX_P35754_26_VVVFIKPTCPYCR (UniProt P35754)	-0.438	-1.02
GNPTG_Q9UJJ9_245_TPEENEPTQLEGGPDSLGFETLENCR (UniProt Q9UJJ9)	0.0339	0.0562
GPHN_Q9NQX3_154_GSQECFQFILPALPHAIDLLR (UniProt Q9NQX3)	-0.257	-0.215
HSP90AA1_P07900_597_LVTSPCCIVTSTYGWTANMER (UniProt P07900)	-0.00873	-0.167
GARS_P41250_471_SCYDLSCHAR (UniProt P41250)	0.0402	-0.161
GMPS_P49915_554_MCHNVNR (UniProt P49915)	-0.0349	0.0313
GRK2_P25098_154_QVPPDLFQPYIEEICQNLR (UniProt P25098)	0.263	-0.119
GMPR2_Q9P2T1_205_TGVGYPQLSAVMECADAAHGLK (UniProt Q9P2T1)	-0.00564	-0.0221
HELZ_P42694_101_AVLCCMQLK (UniProt P42694)	-0.0684	0.0429
HACL1_Q9UJ83_261_GVVPDNHPYCVGAAR (UniProt Q9UJ83)	-0.0211	-0.0859
GFM1_Q96RP9_153_VLDGAVLVLCAVGGVQCQTMTVNR (UniProt Q96RP9)	-0.637	0.0473
HECTD4_Q9Y4D8-5_230_ENAAAALVALACAR (UniProt Q9Y4D8)	-0.00496	0.117
GRIN2C_Q14957_1011_TGHCGR (UniProt Q14957)	0.454	0.879
GMFG_O60234_87+96_YVHDDGRVSYPLCFIFSSPVGCKPEQQMMYAGSK (UniProt O60234)	-0.461	-0.539
HEXA_P06865_522_RGVQAQPLNVGFCEQEFEQT (UniProt P06865)	0.056	-0.123
GMFG_O60234_87+96_VSYPLCFIFSSPVGCKPEQQMMYAGSK<|>GMFB_P60983_87+96_VSYPLCFIFSSPVGCKPEQQMMYAGSK (UniProt P60983+O60234)	-0.313	-0.29
HSPH1_Q92598_245_LVEHFCAEFK (UniProt Q92598)	-0.0153	-0.0589
HPRT1_P00492_106_SYCNDQSTGDIK (UniProt P00492)	-0.0695	-0.0943

Reference: the supplement of paper PMC12067093, “Discovery and optimisation of a covalent ligand for TRIM25 and its application to targeted protein ubiquitination” (Chemical Science, 2025)
